Patent publication US20220289825A1 (NANJING SHUNXIN PHARMACEUTICALS CO LTD OF CHIATAI TIANQING …, published 2022)
Blank lines part the entries; values can stand above or below the binder they belong to.

Key:
[1] = biological target: T1, TGF-β1 recombinant protein (Sinobiological, 10804-H08H) (UniProt P01137 30-390); assay: SPR, Biacore T200; M7824 captured by anti-hIgG1(Fc) on CM5 chip, TGF-β as analyte, 1:1 Langmuir fit
T1 construct: also called TGF-β protein

[2] = biological target: PD-L1 on CHO-PDL1-CD3L cells (UniProt Q9NZQ7); assay: cell-based or functional assay
[3] = biological target: T2, PD-L1 protein (Sinobiological, 10084-H08H) (UniProt Q9NZQ7 part only); assay: ELISA; PD-L1 recombinant protein coated at 2 µg/mL, HRP goat anti-human secondary antibody
T2 construct: Bought reagent; also called PD-L1 recombinant protein

[4] = biological target: T1, TGF-β1 recombinant protein …; assay: ELISA; TGF-β1 recombinant protein coated at 2 µg/mL, HRP goat anti-human secondary antibody
[5] = biological target: T2, PD-L1 protein (Sinobiological, …); assay: SPR, Biacore T200; fusion protein captured by anti-hIgG1(Fc) on CM5 chip, PD-L1 as analyte, 1:1 Langmuir fit
[6] = biological target: T1, TGF-β1 recombinant protein …; assay: SPR, Biacore T200; fusion protein captured by anti-hIgG1(Fc) on CM5 chip, TGF-β as analyte, 1:1 Langmuir fit

T1 sequence (P01137 30-390 limits assumed): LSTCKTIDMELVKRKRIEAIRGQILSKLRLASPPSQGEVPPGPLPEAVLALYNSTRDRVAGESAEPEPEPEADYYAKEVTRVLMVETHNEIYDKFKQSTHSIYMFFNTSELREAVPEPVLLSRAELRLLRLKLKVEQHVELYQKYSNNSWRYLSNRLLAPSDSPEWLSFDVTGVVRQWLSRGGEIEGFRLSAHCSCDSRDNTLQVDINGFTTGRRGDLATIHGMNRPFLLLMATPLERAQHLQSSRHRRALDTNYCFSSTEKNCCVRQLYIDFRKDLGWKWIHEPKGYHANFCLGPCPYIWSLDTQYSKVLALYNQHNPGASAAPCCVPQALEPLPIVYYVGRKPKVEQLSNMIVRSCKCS

Kd [1]: 15.2 nM
B1: M7824 (other)
heavy: EVQLLESGGGLVQPGGSLRLSCAASGFTFSSYIMMWVRQAPGKGLEWVSSIYPSGGITFYADTVKGRFTISRDNSKNTLYLQMNSLRAEDTAVYYCARIKLGTVTTVDYWGQGTLVTVSSASTKGPSVFPLAPSSKSTSGGTAALGCLVKDYFPEPVTVSWNSGALTSGVHTFPAVLQSSGLYSLSSVVTVPSSSLGTQTYICNVNHKPSNTKVDKRV[no letters for human IgG1 Fc]GGGGSGGGGSGGGGSGGGGSGIPPHVQKSVNNDMIVTDNNGAVKFPQLCKFCDVRFSTCDNQKSCMSNCSITSICEKPQEVCVAVWRKNDENITLETVCHDPKLPYHDFILEDAASPKCIMKEKKKPGETFFMCSCSSDECNDNIIFSEEYNTSNPD
light: QSALTQPASVSGSPGQSITISCTGTSSDVGGYNYVSWYQQHPGKAPKLMIYDVSNRPSGVSNRFSGSKSGNTASLTISGLQAEDEADYYCSSYTSSSTRVFGTGTKVTVLGQPKANPTVTLFPPSSEELQANKATLVCLISDFYPGAVTVAWKADGSPVKAGVETTKPSKQSNNKYAASSYLSLTPEQWKSHRSYSCQVTHEGSTVEKTVAPTECS

Biological activity (EC50 of reference sample/EC50 of test sample x 100%) [2]: 75.4%
EC50 (nmol/L), reporter gene assay (CHO-PDL1-CD3L + Jurkat-PD-1-NFAT, luciferase RLU) [2]: 6.11 nmol/L
EC50 [3]: 0.0343 mg/L
EC50 [4]: 0.067 mg/L
Kd [5]: 0.0427 nM
koff [5]: 0.000745 s⁻¹
kon [5]: 1.74e+07 M⁻¹ s⁻¹
Kd [6]: 11.3 nM
koff [6]: 0.000937 s⁻¹
kon [6]: 82800 M⁻¹ s⁻¹
B2: hu5G11-hIgG1-TGF-β RII (other)
heavy: QITLKESGPTLVKPTQTLTLTCTVSGFSLSTYGVHWIRQPPGKALEWLGVIWRGVTTDYNAAFMSRLTITKDNSKNQVVLTMNNMDPVDTATYYCARLGFYAMDYWGQGTLVTVSS[no letters for human IgG1 constant region with D265A (EU numbers)]GGGGSGGGGSGGGGSGGGGSGIPPHVQKSVNNDMIVTDNNGAVKFPQLCKFCDVRFSTCDNQKSCMSNCSITSICEKPQEVCVAVWRKNDENITLETVCHDPKLPYHDFILEDAASPKCIMKEKKKPGETFFMCSCSSDECNDNIIFSEEYNTSNPD
light: DIQMTQSPSSLSASVGDRVTITCKASQSVSNDVAWYQQKPGKAPKLLIYYAANRYTGVPDRFSGSGYGTDFTFTISSLQPEDIATYFCQQDYTSPYTFGQGTKLEIKRTVAAPSVFIFPPSDEQLKSGTASVVCLLNNFYPREAKVQWKVDNALQSGNSQESVTEQDSKDSTYSLSSTLTLSKADYEKHKVYACEVTHQGLSSPVTKSFNRGEC
notes: Expressed transiently in ExpiCHO-S cells and purified on protein A; also called anti-PD-L1-TGF-β RII fusion protein; PD-L1/TGFβ RII
